The campaign covered roughly 310,000 compounds. About 2,200 (0.71%) showed an effect of 50% or more. Effects have a minus sign here. Some of the results follow.

Results on 43 compounds are retold here after publication PMC4336329 (PLoS ONE, 2015).

Chain of human ether-à-go-go-related gene (hERG) potassium channel (Q12809 whole entry, looked up): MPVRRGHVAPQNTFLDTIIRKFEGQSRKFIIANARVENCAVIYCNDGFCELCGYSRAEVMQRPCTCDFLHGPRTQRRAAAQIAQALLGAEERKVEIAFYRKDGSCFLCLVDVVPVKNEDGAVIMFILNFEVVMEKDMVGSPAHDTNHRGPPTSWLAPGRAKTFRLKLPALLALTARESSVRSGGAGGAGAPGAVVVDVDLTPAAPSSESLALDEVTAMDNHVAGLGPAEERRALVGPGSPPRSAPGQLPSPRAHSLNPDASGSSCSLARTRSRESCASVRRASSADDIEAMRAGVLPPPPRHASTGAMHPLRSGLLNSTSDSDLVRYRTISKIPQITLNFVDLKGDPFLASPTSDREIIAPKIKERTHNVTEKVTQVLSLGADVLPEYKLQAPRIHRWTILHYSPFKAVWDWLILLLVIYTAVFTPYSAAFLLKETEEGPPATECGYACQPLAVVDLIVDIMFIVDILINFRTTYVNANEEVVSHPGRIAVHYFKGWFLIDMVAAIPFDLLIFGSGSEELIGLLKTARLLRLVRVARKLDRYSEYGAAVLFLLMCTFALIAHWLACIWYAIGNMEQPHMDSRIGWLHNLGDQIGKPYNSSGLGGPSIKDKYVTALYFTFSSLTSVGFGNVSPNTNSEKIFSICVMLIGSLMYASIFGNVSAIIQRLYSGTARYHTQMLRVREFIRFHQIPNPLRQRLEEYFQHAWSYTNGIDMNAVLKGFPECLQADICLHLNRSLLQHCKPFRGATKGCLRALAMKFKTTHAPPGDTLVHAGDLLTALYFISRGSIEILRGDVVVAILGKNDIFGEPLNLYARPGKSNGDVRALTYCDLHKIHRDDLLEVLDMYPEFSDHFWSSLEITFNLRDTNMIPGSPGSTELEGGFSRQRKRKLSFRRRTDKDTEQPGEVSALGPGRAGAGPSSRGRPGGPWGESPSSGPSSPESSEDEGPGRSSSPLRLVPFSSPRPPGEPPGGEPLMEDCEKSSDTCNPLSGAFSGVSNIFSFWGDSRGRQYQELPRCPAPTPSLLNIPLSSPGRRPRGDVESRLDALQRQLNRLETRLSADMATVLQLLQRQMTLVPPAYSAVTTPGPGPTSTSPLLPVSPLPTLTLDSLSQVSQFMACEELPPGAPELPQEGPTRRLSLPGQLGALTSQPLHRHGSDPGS

The assay addresses human ether-à-go-go-related gene (hERG) potassium channel (human, UniProt Q12809). The assay can be described thus: primary screen, population patch clamp on CHO cells stably expressing hERG.
Turning to `COc1cc(C(=O)NCC(=O)N/N=C(/C)c2ccc3c(c2)CCCC3)cc(OC)c1OC`, the “hERG current change (%, negative = inhibition) at 1uM” value is given as 1.14%.

Regarding `CSc1cccc(NC(=S)N2CCC(N(C)C3CCCCCC3)CC2)c1`, the “hERG current change (%, negative = inhibition) at 1uM” value is given as -26.1%. With `COc1ccc(CC(=O)NC(C)(C)CC(C)=O)cc1OC`, the “hERG current change (%, negative = inhibition) at 1uM” value is reported as -3.81%.

Turning to `O=C(CN1C(=O)NC2(CCOc3ccccc32)C1=O)c1ccc(Cl)cc1` (stereo not shown), the “hERG current change (%, negative = inhibition) at 1uM” value is reported as 2.89%.

With `O=C(CN1CCN(c2ccc(F)cc2)CC1)Nc1ccc(F)c(F)c1`, the “hERG current change (%, negative = inhibition) at 1uM” value is 6.62%. Consider `CCOc1ccc(CN(C)C(=O)CNC(=O)c2sc3ccccc3c2Cl)cc1`, for which the “hERG current change (%, negative = inhibition) at 1uM” value worked out at 4.08%. `NC(=O)c1cc(-c2ccccc2)nc(Oc2ccccc2)n1`: the “hERG current change (%, negative = inhibition) at 1uM” value was 10.5%.

With `C=CCn1c(SCc2ccc([N+](=O)[O-])cc2)nnc1C(C)NC(=O)c1ccccc1` (stereo not shown), the “hERG current change (%, negative = inhibition) at 1uM” value is reported as -43.4%. The figure for `CCOC(=O)CSc1nc2c(c(=O)n(C)c(=O)n2C)n1Cc1ccccc1F` is -5.45%. Consider `CCn1c(CNC(=O)c2cccc(C)c2)nnc1SCC(=O)NC1CCCC1`, for which the “hERG current change (%, negative = inhibition) at 1uM” value is given as 7.81%. The figure for `CC(C)c1nc2oc3c(N(C)CCO)ncnc3c2c2c1CCC2` is -15%. Take `CC1(C)CC2CC(C)(CN2C(=O)c2cc(-c3ccc(O)cc3)on2)C1` (stereo not shown): the “hERG current change (%, negative = inhibition) at 1uM” value is listed as 4.53%.

With `Fc1cc(F)c2nc(Nc3nc4cc5c(cc4s3)OCO5)sc2c1`, the “hERG current change (%, negative = inhibition) at 1uM” value is reported as 14.2%. In the case of `Oc1ccc(/C=C/c2ccc3cccc(O)c3n2)cc1Br` it was 7.42%; in that of `Cc1c(Cl)cccc1NS(=O)(=O)c1cccc2nsnc12`, 6.9%. Regarding `Clc1cccc(NCc2nnc(SCc3ccccc3Cl)o2)c1`, the “hERG current change (%, negative = inhibition) at 1uM” value is given as 8.28%. On to `CCN(CC(=O)Nc1ccccc1C(F)(F)F)C(=O)C1CCN(C(=O)Nc2ccccc2)CC1`, for which the “hERG current change (%, negative = inhibition) at 1uM” value amounted to 9.8%. The figure for `Cc1ccc(SCC(=O)Nc2nccs2)cc1` is -6.15%; for `CNc1nc(C)cc(C)c1S(=O)(=O)c1ccc(C)cc1` it is 9.33%.

Regarding `CCOc1ccc(NC(=O)COC(=O)C2(C)CC2(Cl)Cl)c([N+](=O)[O-])c1` (stereo not shown), the “hERG current change (%, negative = inhibition) at 1uM” value was 5.04%.

As for `CC(C)C(=O)Nc1ccc(C(=O)NCc2cccnc2)cc1`, the “hERG current change (%, negative = inhibition) at 1uM” value turned out to be 10.3%.

As to `O=C(N/N=C/c1ccc(O)cc1)c1ccc(NC(=O)c2ccccc2Br)cc1`, the “hERG current change (%, negative = inhibition) at 1uM” value is recorded as 4.68%. In the case of `O=C(c1cc2ccccc2o1)N1CCN(S(=O)(=O)c2ccc(F)c(F)c2F)CC1` it was 5.61%; in that of `c1ccc2c(N3CCCC3)nc(-c3ccncc3)nc2c1`, 1.09%; in that of `CC1(C)Cc2c(c(N3CCOCC3)nc3sc4c(NCCN5CCOCC5)nnnc4c23)CS1`, 12.8%.

`O=C(N/N=C/c1c[nH]c2ccccc12)c1ccn(Cc2ccc(Cl)cc2Cl)n1`: the “hERG current change (%, negative = inhibition) at 1uM” value amounted to 13.7%. The figure for `Cc1ccc(C(=O)NCC(=O)OC(C)C(=O)Nc2ccc(N(C)C)cc2)cc1C` (stereo not shown) is -2.2%.

As for `O=c1c(Cl)c(NCc2ccc(F)cc2Cl)cnn1C12CC3CC(CC(C3)C1)C2`, the “hERG current change (%, negative = inhibition) at 1uM” value is recorded as 21.3%. In the case of `Cc1ccccc1C(=O)N1CCC(C(=O)Nc2cccc(F)c2)CC1` it was 2.79%; in that of `CC(C)[C@H](CO)N(Cc1cccc(F)c1)c1nc(Nc2cccc(Cl)c2)c2ncn(C(C)C)c2n1`, 6.75%. The figure for `COCCNC(=O)CN(C(=O)c1ccc(N2CCCC2)nc1)c1ccc(F)c(Cl)c1` is 11.2%; for `Cc1cc(C(=O)CN2C(=O)NC3(CCCCC3)C2=O)c(C)n1-c1ccc2c(c1)OCO2` it is 5.94%; for `CC1(C)Cc2c(C#N)c(SCC(=O)c3ccccc3)nc(N3CCOCC3)c2CO1` it is 7.44%. In the case of `N#Cc1nc(NCC(F)F)nc(Nc2cc(F)cc(F)c2)n1` it was 3.23%; in that of `COc1ccc(/C=N/n2c(SC)nnc2-c2ccccc2)cc1C`, 7.63%; in that of `Cc1cc(=O)n2[nH]c(SCc3ccc(Cl)cc3)nc2n1`, -0.335%. As for `Cc1cccc(C)c1OC(=O)CN(c1ccc(Cl)cc1)S(C)(=O)=O`, the “hERG current change (%, negative = inhibition) at 1uM” value worked out at 14.2%.

Consider `COc1cc(NC(=O)CN2CCCCC2)c(C)cc1[N+](=O)[O-]`, for which the “hERG current change (%, negative = inhibition) at 1uM” value came to 5.81%. In the case of `O=C(c1ccc(Cl)cc1)N1CCC2(CC1)OCCO2` it was 15.6%; in that of `Cc1ccc(NC(=O)CCC(=O)NNC(=O)NC23CC4CC(CC(C4)C2)C3)cc1C`, 2.58%. The figure for `CNC(=O)CCN(Cc1ccco1)S(=O)(=O)c1ccc(OC)c(OC)c1` is 10.2%; for `CCOC(=O)N1CCc2c(sc(NC(=O)c3ccc(Cl)s3)c2C(N)=O)C1` it is 10.2%. In the case of `Cc1ccc(-c2nc3cccnc3s2)cc1NS(=O)(=O)c1ccc2c(c1)OCCO2` it was 1.63%.
